Paper PMC12136788
This is one part of the list.

T1: UNK ZnF1-3 (human, UniProt Q9C0B0 31-174)
T1 sequence: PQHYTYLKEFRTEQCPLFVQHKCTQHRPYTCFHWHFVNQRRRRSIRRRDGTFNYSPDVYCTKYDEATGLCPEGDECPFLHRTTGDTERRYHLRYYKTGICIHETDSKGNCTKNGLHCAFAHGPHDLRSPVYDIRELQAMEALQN

B1: chr10:5838811:5838812:-_ENSG00000057608_ENST00000380191|hu_hu|FALSE|FALSE (ssRNA)
RNA: GGGAGUUCUACAGUCCGACGAUCAACAUUCCAGUCUCUUCCUCUCCCCAUUGACUCGGGUGGUGAUCCUGGUAUUUUAAAUCUUUUGUAUAAAUCUUCCAAUGGUGUUAUAGAUGCACUCUCUCCUCCGUAGUAAGGGUUUCGCAACAGAGGAUUGAGCAUCA
B2: chr11:77336104:77336105:-_ENSG00000074201_ENST00000525064|hu_mus|hu_hu_hu_mus_False|28_28 (ssRNA)
RNA: GGGAGUUCUACAGUCCGACGAUCCUCACACAUUGCUGUGAACAUCGCCUCCAAUGCUGACUUAUCACUGGGCACAAAUCGAAAUUCAGAAAUGGGUUCAACAUCAUCAUCACUGUCCUCAUCUUCAUCAGAGAGAGGUUCUUUCAACAGAGGAUUGAGCAUCA
B3: chr20:47733735:47733736:-_ENSG00000124214_ENST00000360426|hu_mus|FALSE|FALSE (ssRNA)
RNA: GGGAGUUCUACAGUCCGACGAUCCACAUCCUUGCCGAUGCCAUGACUGACGAGAGGCGGCUGUGAGGAGCAGUUGAUGAGAGAUACACACUCGUUCUUGUUGUUCUUGGGAAAAUCUUUGUAUUCAACCUGGAAUCCCUGGGCCAACAGAGGAUUGAGCAUCA
B4: 126051128_126052083_3317_CDS_ENSG00000164961_ENST00000318410|human|control|control (ssRNA)
RNA: GGGAGUUCUACAGUCCGACGAUCAAGUGUGUUAUCUUCUUUGGGGUAAGGAAGUGAAGGGUCCUGAUAGUGGGCUUCAAUGUCUGCUAGGAGAGCCUUAUUGAGAUUCUCCAGAGCAGCUGCCAGAUGUUUAGAAUCAAACCGCAACAGAGGAUUGAGCAUCA
B5: chr10:98487791:98487792:+_ENSMUSG00000019943_ENSMUST00000020107|mus_hu|motif|central (ssRNA)
RNA: GGGAGUUCUACAGUCCGACGAUCUCAUGCAGCACAUUAAUGGCAAAACCAAGACUAGAAACCAGGUCUUGACUCCGGGUCGGAUAUGCUUUCCAGCAUAUCAUGCUACCUCUUUUUUACAGUAUGAUUCACUAUAAAUACCUGCAACAGAGGAUUGAGCAUCA
B6: chr17:79190952:79190953:-_ENSMUSG00000039414_ENSMUST00000097281|mus_mus|motif|central (ssRNA)
RNA: GGGAGUUCUACAGUCCGACGAUCGCUAUGAUCAGUUGCAGCCAUGAAUGCCAUUCGAAUCAGGUCAGAGAGAUGCAAUACGGGGAGGUCAUUUUUUGGGUUUCGUAGUUUAGCAGACCGUGCCAAGGCAAGGUCGAAGUGAGCCAACAGAGGAUUGAGCAUCA
B7: chr17:64801638:64801639:+_ENSG00000154229_ENST00000413366|hu_mus|hu_hu_hu_mus_False|38_68 (ssRNA)
RNA: GGGAGUUCUACAGUCCGACGAUCUAUAUAUAUAUAUACAUAUGUACACAUAUAUAGUAAAACCCUAAUCUAUCACGUAAAGUAGCCAUUCAUUUUUGAAAUUUUAUCUACAUUAAAAAAUUAAUAUAUCUGAUAGAGUGCCAGCAACAGAGGAUUGAGCAUCA
B8: chr12:56598494:56598495:-_ENSG00000181852_ENST00000345093|hu_mus|FALSE|FALSE (ssRNA)
RNA: GGGAGUUCUACAGUCCGACGAUCCAGAGUGAGCUUGGGCAAGGCAGGCAGGCACAAAGAGGAACAAGAAACCCAGUAACCCGACUGAGUAUAGCAGCCUUUUUCAAACUCCUGAGCACAAUGUCCUGGAGCUGGAACACCCAACAACAGAGGAUUGAGCAUCA
B9: chr16:2814526:2814527:+_ENSG00000167978_ENST00000301740|hu_hu|motif|central (ssRNA)
RNA: GGGAGUUCUACAGUCCGACGAUCCUCAGAAGAAAAUCCAGUAUUCAUUUCUGUACCAAGUGGGCCUGAGUUUCUAAAUUCGGAAGGUGAUCCAAAGCUGUUCUCCCUGAGUGGGGAGUUAGACAGUUCUUUAUGUUCUGGAGACAACAGAGGAUUGAGCAUCA
B10: 90591247_90591594_633_CDS_ENSMUSG00000008200_ENSMUST00000013759|mouse|control|control (ssRNA)
RNA: GGGAGUUCUACAGUCCGACGAUCUAUCUCCGCUAGGAAGUUGGCCAGUGUGCUGUCAAUGUCAGUGGCCUGGUUUCCGUUGGCCUCUUUGGAUUGGGCUGUUUUCUCAGACACAUCACUCUCAUCGUCAUCGCUGUCAGCAUACAACAGAGGAUUGAGCAUCA
B11: chr6:50807893:50807894:+_ENSG00000008196_ENST00000393655|hu_hu|FALSE|FALSE (ssRNA)
RNA: GGGAGUUCUACAGUCCGACGAUCCUCAGAGACGGCUUUGGCGGGAAACUCCGUUUCGCAAAUGUACCCAAAAUCCCUAGCUAAGUGAACAGCUUCUCCUUCCACCAGGGAGGUGAGUAACGUGACAUUUGCUGCUUUGCGCCUCAACAGAGGAUUGAGCAUCA
B12: chr3:89559821:89559822:-_ENSMUSG00000027950_ENSMUST00000029562|mus_mus|motif|central (ssRNA)
RNA: GGGAGUUCUACAGUCCGACGAUCCCCAGCACAGCCCUGCCUACCUUUAUUCCCACAGUGUAAAUGCUGGGAGCAGGUUCGGAGAUGGGCGCUGUUUGCCUGAUAUGUUCAACAGGAUACGGAAAGGAGCUGGACAAACUGUUCCAACAGAGGAUUGAGCAUCA
B13: chr1:66463027:66463028:+_ENSMUSG00000015222_ENSMUST00000114013|mus_mus|mus_mus_mus_hu_True|18_38 (ssRNA)
RNA: GGGAGUUCUACAGUCCGACGAUCUUUUCUUUCAGGAGUGGAAAUUCUGCCUCUCCCGGUUUUAAAAGGCUUUUCUUUUCUAUGUUUCUCAAGAGAUGGUCUCCGAGCUUCCUUUUCAGCUCUCUCCUCUUUAGGAAUAGUUUCCAACAGAGGAUUGAGCAUCA
B14: 136505900_136511780_517_3pUTR_ENSG00000144224_ENST00000272638|human|control|control (ssRNA)
RNA: GGGAGUUCUACAGUCCGACGAUCGGAAUUCCACUGUCUCCAAUAAAGAAACUGGAUGGAACACACACUACAGGAUAGAUUUGUGAAAACUGUAGGCAGGCUUCACUUUUGGUAUCGAUUUUAAUAGCAACAAAACUGUUUGAACAACAGAGGAUUGAGCAUCA

The binders below were run against T1, UNK ZnF1-3 (assay: nsRBNS (natural sequence RNA bind-n-seq); RBNS binding buffer (assumed for nsRBNS): 25 mM Tris pH 7.5, 150 mM KCl, 3 mM MgCl2, 0.01% Triton X-100, 500 ug/ml BSA, 20 U/ml SUPERase-In, 4 C; UNK is unkempt and MSI1 is Musashi-1; names of the RNAs are library labels; protein concentration not given here; high values mean tight binding).

Row | Binder | binding signal [enrichment R]
1 | B1 | 1.1
2 | B2 | 1.13
3 | B3 | 1.36
4 | B4 | 0.741
5 | B5 | 0.45
6 | B6 | 1.11
7 | B7 | 1.26
8 | B8 | 1.48
9 | B9 | 0.942
10 | B10 | 0.706
11 | B11 | 0.753
12 | B12 | 0.847
13 | B13 | 0.347
14 | B14 | 1.44
